The target in the experiment is T1, retinoid x receptor (RXRα) (human, UniProt P19793 1-462).
T1 construct: mature; In vitro translated full length receptor; 35S-labelled in the column and immunoprecipitation experiments
T1 sequence (looked up): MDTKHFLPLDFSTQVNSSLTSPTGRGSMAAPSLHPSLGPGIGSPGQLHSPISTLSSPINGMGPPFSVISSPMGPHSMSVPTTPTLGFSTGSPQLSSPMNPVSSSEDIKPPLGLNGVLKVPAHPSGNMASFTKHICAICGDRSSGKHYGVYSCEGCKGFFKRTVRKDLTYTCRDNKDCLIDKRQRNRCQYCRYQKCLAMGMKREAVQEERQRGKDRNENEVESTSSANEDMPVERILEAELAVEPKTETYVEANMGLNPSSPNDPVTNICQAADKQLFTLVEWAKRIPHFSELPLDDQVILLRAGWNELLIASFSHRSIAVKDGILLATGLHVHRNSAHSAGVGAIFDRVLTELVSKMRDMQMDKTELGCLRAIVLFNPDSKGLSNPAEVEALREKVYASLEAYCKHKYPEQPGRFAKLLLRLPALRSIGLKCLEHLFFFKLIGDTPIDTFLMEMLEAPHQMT
In words: glutathione sepharose affinity column, 35S-labelled RXRα, no DNA.

B1: glutathione S-transferase (vector control protein) (enzyme)
chain: not shown
notes: Control protein; also called glutathione transferase; glutathione transferase control protein
For B1, the binding result is “no binding”.

Source of the values: patent US7098310 (LIGAND PHARMACEUTICALS, dated 2006).
